This passage reports binding signal results from PMC12136788.

The list shows a part of the results.

The chains are these.
T1: UNK ZnF1-3 (human, UniProt Q9C0B0 31-174)
T1 sequence: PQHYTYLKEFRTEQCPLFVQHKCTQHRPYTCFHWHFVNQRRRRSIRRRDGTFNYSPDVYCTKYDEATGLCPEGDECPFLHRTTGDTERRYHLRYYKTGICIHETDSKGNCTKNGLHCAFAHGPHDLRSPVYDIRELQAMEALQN

B1: 24016654_24036560_782_3pUTR_ENSMUSG00000024277_ENSMUST00000025127|mouse|control|control (ssRNA)
RNA: GGGAGUUCUACAGUCCGACGAUCCGUUUCUAAAUCUUUGUCAGAUCUGGAUGCAGAGCCACUGGAUGAAGCCCUUUUGGCAGACGAGGGGCGAGAAGGUGUGGAUCCUGGCUUAGAUGCAGGACUUGACUUAGCCGCGCCUGCCAACAGAGGAUUGAGCAUCA
B2: chr19:8913615:8913616:-_ENSMUSG00000071658_ENSMUST00000096259|mus_hu|mus_mus_mus_hu_False|48_88 (ssRNA)
RNA: GGGAGUUCUACAGUCCGACGAUCAGGGUACCAAAACCUUCUGCCUGAGAUAGGUGCCCCACCCAGUAGGGAGUUGCAGCUGAAAGUAUCCGUAGCAGAAGCAGUGACUAUACGAAAGGAGGCCCCUGGGGAGGGCCAGGCCAGCAACAGAGGAUUGAGCAUCA
B3: chr17:39847130:39847131:+_ENSG00000173812_ENST00000469257|hu_hu|motif|central (ssRNA)
RNA: GGGAGUUCUACAGUCCGACGAUCGUUACAUUAUACAAGCUGUGAGGUUUUUAAACCUGUGACAAGGGAGAGAAGGGAAAUUCGGCUCAUUGCAAGGAAAUCCUCACUUAAGCUUCAGUGAGCCACAAGCACUUAAAACCCAUGCAACAGAGGAUUGAGCAUCA
B4: chr13:100191535:100191536:-_ENSMUSG00000052727_ENSMUST00000064762|mus_hu|FALSE|FALSE (ssRNA)
RNA: GGGAGUUCUACAGUCCGACGAUCAGAGGGGAUAUUGCACACAAAUAUCAUAAAAGCACUACAUAUUACUUUCACUGGAAACUAAUUUUCUACAUUAGAUAUGACUGGAUAGGAUAGAAGUGAUGCAGGAUUAUAAGACAUAAUCAACAGAGGAUUGAGCAUCA
B5: chr10:61005148:61005149:+_ENSG00000165443_ENST00000486074|hu_mus|FALSE|FALSE (ssRNA)
RNA: GGGAGUUCUACAGUCCGACGAUCGACAUCCUGGGCGUGGUGGUACACCAGCACCCCAUCUUCUUCUGUACAGGUCAAAAAAUUAUUAUCCUUGGAAUUUAGUUGAGGAAGGCGCUGCUUACAAAAUUCAUCUCCUGGUGAUCCCAACAGAGGAUUGAGCAUCA
B6: chr2:53077437:53077438:+_ENSMUSG00000026960_ENSMUST00000028336|mus_mus|FALSE|FALSE (ssRNA)
RNA: GGGAGUUCUACAGUCCGACGAUCACAUUUAAAGCUUAAUUAAUAACAACAAGAACCCUUGAUAUGACAAGUACAGUAUCUAUAAUAUAUUACAACAUACAUAUUACAGUUAAAUUAUAUGUACACAUACAGAGUAUCAAAAUACAACAGAGGAUUGAGCAUCA
B7: chrX:12171913:12171914:+_ENSMUSG00000031007_ENSMUST00000033313|perfect_dup|FALSE|FALSE (ssRNA)
RNA: GGGAGUUCUACAGUCCGACGAUCCCUGGUAUAGGCCAAUUUCCAUUUCGGAAAACAACAGACCCUGGCGAUCUUAAUAUGCUAAAUUCAUUCCCUAAAGCACCCGCCACCAGAAAGAACAGGAGAACGACCAGCACAGCCAUGCAACAGAGGAUUGAGCAUCA
B8: chr15:81680702:81680703:-_ENSMUSG00000048546_ENSMUST00000050467|mus_mus|FALSE|FALSE (ssRNA)
RNA: GGGAGUUCUACAGUCCGACGAUCGAGAGAGAGUUGAGGCUAGGGCCAGACUUAUUUGGGUGGCAGGCCCUGAGAAGACAGCUAGGUUGGGGGUUGUGGACACGGGGGUGGAGGGUGGGGGGGUGUCAGCCUCUCCCUGUUUCACAACAGAGGAUUGAGCAUCA
B9: chr1:63223577:63223578:+_ENSMUSG00000025967_ENSMUST00000129339|mus_hu|FALSE|FALSE (ssRNA)
RNA: GGGAGUUCUACAGUCCGACGAUCAAGGUCAAAGUACUUUUGCAUUCCCACUUCUCCACGUACGAAUUGGGGGCCCUGAAUUAAAUGGCCCACAAAUUGUCCAUGGACCUUUCGUUGCGUUUGGAAGUAAAUUAAUAAAAUAGGCAACAGAGGAUUGAGCAUCA
B10: chr1:145602572:145602573:-_ENSMUSG00000018199_ENSMUST00000159879|mus_mus|FALSE|FALSE (ssRNA)
RNA: GGGAGUUCUACAGUCCGACGAUCCUGUUCAAGGCCAGCCUGGUCUACACAGUGAGCUCUAGAAUAGCCAGGACUAUGUCUAUGGAGAGAGACCCUGUCACAAAACAAAACAAAACAAAACAAAAUAACCAUCACACACACAUCCAACAGAGGAUUGAGCAUCA
B11: 91956291_91961813_1463_CDS_ENSG00000187742_ENST00000375807|human|control|control (ssRNA)
RNA: GGGAGUUCUACAGUCCGACGAUCGACUGGCACUGCUCCAACUGAGACUACCACUGGUUUGGAGGACUGCUUUGCAUGCUGAGAGUGCUGCUUCUUCUCCAGGGCUGUCAGCAUGCCCCCCAAGUCCAACUGCACUGGAAGCUGCAACAGAGGAUUGAGCAUCA
B12: chr6:40197388:40197389:+_ENSMUSG00000057716_ENSMUST00000061740|mus_mus|mus_mus_mus_hu_False|28_108 (ssRNA)
RNA: GGGAGUUCUACAGUCCGACGAUCGAGUUGUCAGUUUGGAUUUAUUCCACCUCUGUUUGGGUGCUAGCCACUAAGACUGUUAUUUUGGGAUUCAUGGCCUUGAAUAUCAAGAGGAAAAGGAAGAGGAUGGAAAGAGUCAAGAGUCAACAGAGGAUUGAGCAUCA
B13: chr16:2814526:2814527:+_ENSG00000167978_ENST00000301740|hu_mus|FALSE|FALSE (ssRNA)
RNA: GGGAGUUCUACAGUCCGACGAUCAACCUCAGGAGAAAAGCCAGUAUUUACUUCUGAAACAGGGCCUGAGUUUUUAAACUCUAAAGAUGACUCAAAGCUAUUCUCCCUUGGGGGAGAAUGAGAUAGUUCUUUAUGCUCUGGAGACAACAGAGGAUUGAGCAUCA
B14: 98493395_98495435_728_CDS_ENSG00000196367_ENST00000355540|human|control|control (ssRNA)
RNA: GGGAGUUCUACAGUCCGACGAUCUAUCAUACCAACCAUUUCUGGGGGAGGCACUGUGUUCUCGGGGAUCACUUGAGGGUUCUCAAAGUAGCGGUUCACUACUUUUGGAAGCUCCUUGUAAAUCUGUUUCACAAAAUCCAGAAACAACAGAGGAUUGAGCAUCA

The test deals with T1, UNK ZnF1-3. Briefly: nsRBNS (natural sequence RNA bind-n-seq); RBNS binding buffer (assumed for nsRBNS): 25 mM Tris pH 7.5, 150 mM KCl, 3 mM MgCl2, 0.01% Triton X-100, 500 ug/ml BSA, 20 U/ml SUPERase-In, 4 C; UNK is unkempt and MSI1 is Musashi-1; names of the RNAs are library labels; protein concentration not given here; high values mean tight binding.
For B1, the binding signal worked out at 0.536 enrichment R.
B2 returned a binding signal of 1.56 enrichment R.
As for B3, the binding signal is 1.12 enrichment R.
Turning to B4, the binding signal was determined as 0.924 enrichment R.
Molecule B5 displayed a binding signal of 1.14 enrichment R.
B6: the binding signal was found to be 1.17 enrichment R.
For B7, the binding signal stood at 1.61 enrichment R.
In turn, B8 gave a binding signal of 1.5 enrichment R.
The same measure for B9: 1.31 enrichment R.
As for B10, the binding signal turned out to be 1.73 enrichment R.
Molecule B11 yielded a binding signal of 0.862 enrichment R.
In turn, B12 gave a binding signal of 1.56 enrichment R.
On to B13, for which the binding signal is 1.17 enrichment R.
Regarding B14, the binding signal came to 0.892 enrichment R.
